# Results published in PubChem BioAssay AID2675 (National Center for Advancing Translational Sciences (NCATS), 2010).
# Out of some 280,000 compounds screened, about 100 (0.036%) were called active. The inconclusive results got no clear call from the source; some entries with a clear call stand among them for comparison. Calls come from the whole dose curve; as a rule, active = well fitted inhibition curve with a large enough effect in the signal ratio, with a control signal flat (not every such curve was filed as active); inconclusive = small, poorly fitted or top-dose-only effect, or effect the other way, or a change in a side signal; inactive = no such curve, though single readings can be large or run the other way; the % refers to the signal ratio. Potencies of inconclusive entries are doubtful fits and often do not repeat. “Side channel” marks fits to a control or component signal instead of the main read-out.
# Biological target: Muscleblind-like protein 1 (Homo sapiens) (UniProt Q9NR56)
# Assay: qHTS Assay for Inhibitors of MBNL1-poly(CUG) RNA binding
# Conditions: TR-FRET MBNL1-His/biotin-(CUG)12 binding, 665/545 ratio; activity change, negative = inhibition: at 57.5 µM (top of the series)
# How it was run: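 MBNL1-His + Biotin-(CUG)12, cpd titration 92 nM–58 uM; Tb anti-His Ab 0.055 ng/ul, SA-XL665 5 nM (final); 60 min RT; ratiometric 665/545 nm, Ex 340 nm; normalized to buffer and full-complex controls.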
# % is set by controls: 0 for no effect and ±100 for the full control effect; potency is the fitted concentration of half-maximal effect; tags give direction and shape of the fitted curve or compound fluorescence and quenching.
# Chain of UniProt Q9NR56 (Q9NR56 whole entry, looked up): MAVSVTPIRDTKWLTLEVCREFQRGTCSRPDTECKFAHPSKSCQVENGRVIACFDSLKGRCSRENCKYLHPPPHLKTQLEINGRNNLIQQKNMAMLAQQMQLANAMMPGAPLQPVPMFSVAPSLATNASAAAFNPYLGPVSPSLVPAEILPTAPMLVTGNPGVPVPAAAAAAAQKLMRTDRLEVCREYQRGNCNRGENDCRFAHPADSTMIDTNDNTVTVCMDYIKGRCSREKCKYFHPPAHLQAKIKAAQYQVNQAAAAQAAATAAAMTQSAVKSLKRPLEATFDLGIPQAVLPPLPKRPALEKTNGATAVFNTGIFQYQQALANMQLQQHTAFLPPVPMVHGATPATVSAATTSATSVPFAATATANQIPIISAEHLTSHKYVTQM
SMILES,"activity change, negative = inhibition",Potency
c1ccc(-c2cc3ccccc3nc2N2CCCC2)cc1,inactive: 3.55%,
CN(c1ccccc1)S(=O)(=O)c1cccc(NC(=O)c2cc(=O)c3ccccc3o2)c1,,"inconclusive: 11.2 µM [quencher, side channel, partial curve]"
S=c1[nH]nc(-c2ccco2)n1/N=C/c1ccccc1Cl,inactive: -20%,
Cc1ccc(-n2nc(C)c(NC(=O)CCl)c2C)cc1,inactive: 1.32%,
CN(C(=O)c1cc(-n2cnnc2)ccc1Cl)c1ccccc1,inactive: -14.6%,
COC(=O)c1cc(=O)n(Cc2cccs2)c(=Nc2ccccc2)s1,inactive: -8.71%,
Cn1ncc(N=Cc2ccc([N+](=O)[O-])cc2)c1C(=O)N1CCOCC1,,"inconclusive: 12.6 µM [quencher, side channel, partial curve]"
Cc1cc(C(=O)NCc2ccc3c(c2)OCO3)ccc1[N+](=O)[O-],,"inconclusive: 20 µM [quencher, side channel, partial curve]"
Cc1cccc(C(O)(C(=O)NNc2ccc3ccccc3n2)c2cccc(C)c2)c1,inactive: 11.1%,
Cc1nnc(SCc2ccc([N+](=O)[O-])cc2)[nH]c1=O,,"inconclusive: 28.2 µM [quencher, single point]"
Cc1ccc(S(=O)(=O)N2CCN(C(=O)CSc3ccc(F)cc3)CC2)cc1,inactive: -8.76%,
Cc1ccc(C(=O)N/C(=C\c2cn(C)c3ccccc23)C(=O)NCCN2CCOCC2)cc1,,"inconclusive: 10 µM [quencher, side channel, partial curve]"
N#Cc1c(NC(NC(=O)c2ccco2)C(=O)c2ccccc2)sc2c1CCCC2 (centres undefined),inactive: 2.56%,
Cc1ccc(S(=O)(=O)n2cnc3ccccc32)cc1[N+](=O)[O-],inactive: 27.8%,
CC1(C(=O)N/N=C/c2ccc([N+](=O)[O-])o2)CC1(Br)Br (centres undefined),,"inconclusive: 10 µM [quencher, side channel, partial curve]"
N[C@H](CSCc1ccccc1)C(=O)Nc1ccc([N+](=O)[O-])cc1,,"inconclusive: 17.8 µM [quencher, side channel, partial curve]"
COc1ccc(-c2cc(C(F)(F)F)nc(S(=O)(=O)CCCC(=O)Nc3cccc(O)c3)n2)cc1OC,inactive: 5.99%,
COCC(O)CSc1nc(C)[nH]c1[N+](=O)[O-] (centres undefined),,"inconclusive: 14.1 µM [quencher, partial curve]"
Cn1cccc1/C=C1\SC(=S)N(NC(=O)c2ccccc2O)C1=O,,"inconclusive: 25.1 µM [quencher, side channel, partial curve]"
Cc1cccc2sc(NNC(=O)c3ccc(S(=O)(=O)N4CC(C)CC(C)C4)cc3)nc12 (centres undefined),inactive: 78.6%,
COc1ccc(CN(C(=O)/C=C/c2ccco2)C2CCS(=O)(=O)C2)cc1OC (centres undefined),,"inconclusive: 0.794 µM [quencher, side channel, full curve, poor fit]"
NC(=O)c1nsc(C(=O)N(c2cccc(F)c2)C(C(=O)NCc2ccccc2)c2ccc(O)cc2)c1N (centres undefined),,"inconclusive: 44.7 µM [quencher, side channel, partial curve, poor fit]"

SMILES,"activity change, negative = inhibition",Potency
COc1ccccc1CNC(=O)C1CCCN(S(=O)(=O)c2cccs2)C1 (centres undefined),inactive: -3.65%,
Nc1c(C(=O)Nc2ccc(Cl)c(C(=O)O)c2)sc2nc3c(cc12)CCCC3,,"inconclusive: 15.8 µM [quencher, side channel, partial curve]"
CC(=O)c1ccc(-n2nncc2-c2ccc([N+](=O)[O-])cc2)cc1,,"inconclusive: 12.6 µM [quencher, partial curve]"
O=C(c1cc(F)c(F)c(F)c1F)N1CCN(Cc2ccc3c(c2)OCO3)CC1,inactive: -8.15%,
CCCN(CC(=O)Nc1ccccc1C)C(=O)c1ccc(N2CCCCCC2)c([N+](=O)[O-])c1,,"inconclusive: 15.8 µM [quencher, partial curve]"
CCN(CCC#N)c1ccc(/C=N/Nc2nc(C)cc(=O)[nH]2)c(C)c1,,"inconclusive: 25.1 µM [activator, single point]"
O=C(/C=C/c1ccc(F)cc1)N1CCCc2ccccc21,inactive: 9.88%,
COc1ccc(C(=O)Nc2ccc(S(=O)(=O)NC(C)(C)C)cc2)cc1[N+](=O)[O-],,"inconclusive: 20 µM [quencher, side channel, partial curve]"
COc1ccc(C)cc1NC(=O)CN1CCN(c2ccccc2F)CC1,inactive: 0.953%,
COC(=O)/C(C#N)=C/c1c(N2CCN(c3ccccc3)CC2)nc2ccccn2c1=O,,"inconclusive: 14.1 µM [quencher, side channel, partial curve]"
COc1ccc(CCNC(=O)CSc2nc(O)cc(=O)[nH]2)cc1OC,inactive: -8.04%,
O=[N+]([O-])c1ccc(N2CCNCC2)cc1Sc1nc2ccccc2[nH]1,,"inconclusive: 28.2 µM [quencher, side channel, single point]"
O=C1Nc2ccccc2C1=Nc1ccc(S(=O)(=O)Nc2nccs2)cc1,,"inconclusive: 14.1 µM [quencher, side channel, partial curve]"
Cc1ccc2nsnc2c1NC(=O)COc1ccccc1F,,"inconclusive: 31.6 µM [quencher, side channel, single point]"
COc1ccccc1CCNC(=O)C(=O)NCC1OCCN1S(=O)(=O)c1ccc([N+](=O)[O-])cc1 (centres undefined),,"inconclusive: 10 µM [quencher, side channel, partial curve]"
O=C(/C=C/c1ccccc1)Nc1nnc(SCC(=O)c2ccc3ccccc3c2)s1,,"inconclusive: 0.355 µM [fluorescent, side channel, full curve, poor fit]"
Nc1nnc(CC(=O)N/N=C/c2cc([N+](=O)[O-])cc(Br)c2O)s1,,"inconclusive: 28.2 µM [quencher, side channel, single point]"
CCn1c(C)c2c(C)nnc(C)c2c1C,,"inconclusive: 31.6 µM [quencher, side channel, single point]"
O=C(Nc1nccs1)c1ccc2ccccc2n1,,"inconclusive: 28.2 µM [quencher, side channel, partial curve]"
CCc1n[nH]c(=S)n1/N=C/c1ccc(N(CC)CC)cc1,,"inconclusive: 15.8 µM [quencher, partial curve]"
CC1CC(=O)Nc2cc([N+](=O)[O-])ccc2N1 (centres undefined),,"inconclusive: 28.2 µM [quencher, side channel, partial curve]"
c1ccc2nc3c(nc2c1)[nH]c1ccccc13,,"inconclusive: 6.31 µM [quencher, side channel, partial curve]"

SMILES,"activity change, negative = inhibition",Potency
Cc1nc(/C(N)=N/OC(=O)c2c(-c3ccccc3Cl)noc2C)cs1,inactive: 1.59%,
Cc1[nH]n(-c2ccc([N+](=O)[O-])cc2)c(=O)c1C=NCCc1c[nH]c2ccccc12,,"inconclusive: 0.316 µM [fluorescent, side channel, full curve, poor fit]"
O=C1c2ccccc2NC(c2cccc(F)c2)N1Cc1ccco1 (centres undefined),,"inconclusive: 25.1 µM [quencher, side channel, partial curve]"
CC1(C)CC(=O)c2cc3c(nc2C1)CC(C)(C)CC3=O,inactive: -0.389%,
Cc1nc(SCC(O)CCl)c([N+](=O)[O-])[nH]1 (centres undefined),,"inconclusive: 14.1 µM [quencher, side channel, partial curve]"
COCCCNC(=S)Nc1c(C)cc(C)cc1C,inactive: -5.33%,
COc1cc2c(cc1OC)/C(=C/c1ccc(Br)cc1)C(=O)OC2,inactive: -3.48%,
COc1cccc(NC(=O)CSc2ncnc3c2oc2ccccc23)c1,,"inconclusive: 35.5 µM [fluorescent, partial curve]"
Cc1cnc2cc([N+](=O)[O-])ccc2n1,,"inconclusive: 20 µM [quencher, side channel, partial curve, poor fit]"
O=C1NC(=O)C2C1C(c1ccccc1)N1C3C(=O)NC(=O)C3C(c3ccccc3)N21 (centres undefined),,active: 31.6 µM
Clc1ccccc1-c1nnc2sc(-c3ccc(Br)o3)nn12,,"inconclusive: 14.1 µM [quencher, side channel, partial curve]"
O=C(Cn1ccc2ccccc2c1=O)NCCC(=O)N1CCN(c2cccc(Cl)c2)CC1,,"inconclusive: 7.08 µM [quencher, side channel, single point]"
COc1cc(OC)cc(C(=O)O/N=C(\N)c2cccc(C)c2)c1,inactive: -2.02%,
COc1cccc(N/C(N)=N/c2nc(C(F)(F)F)cc(=O)[nH]2)c1,,"inconclusive: 2.82 µM [fluorescent, side channel, partial curve]"
CN(C)/C=C/C(=O)c1cnc2sccn2c1=O,,"inconclusive: 25.1 µM [quencher, side channel, single point]"
O=[N+]([O-])c1ccc(COc2ncnc3ccccc23)cc1,,"inconclusive: 20 µM [quencher, side channel, partial curve]"
Cc1cccn2c(=O)c3cc(C(=O)NC4CCS(=O)(=O)C4)sc3nc12 (centres undefined),,"inconclusive: 14.1 µM [quencher, side channel, partial curve]"
CC(C)Cn1c(N)c(C(=O)COC(=O)c2cc(-c3ccco3)nc3ccccc23)c(=O)n(C)c1=O,,"inconclusive: 35.5 µM [quencher, side channel, single point]"
CN(C)c1ccc(N=Nc2ccccc2C(=O)OCC(=O)N2CCCCCC2)cc1,,"inconclusive: 28.2 µM [quencher, side channel, partial curve]"
O=C(NCCCn1ccnc1)C(Cc1ccc([N+](=O)[O-])cc1)N1C(=O)c2ccccc2C1=O (centres undefined),inactive: 23.7%,
